For one series, the system named is rHCoVs-OC43. Briefly: organism not typed. As to conditions: for EC50: HRT-18, 48 h. The class given is cell-based.
Series [1] in a line: Cell viability assay (MTT) in HRT-18 cells. As to conditions: human, CC50 (μM), drug alone, 48 h treatment.

We go through seven compounds from patent US20250057819A1, “DRUG COMBINATIONS FOR INHIBITING CORONAVIRUS REPLICATION” (priority 2021, published 2025).

Counter-ions that a name gives are not always drawn.

By EC50 is commonly meant the concentration that produces a half-maximal response. `CN[C@H]1CC[C@@H](c2ccc(Cl)c(Cl)c2)c2ccccc21` [Sertraline hydrochloride] registered an EC50 in the series with rHCoVs-OC43 of 2.3 µM. What is called IC50 is the concentration that gives 50% inhibition. High values mean weaker potency in that assay, low ones greater potency in that assay. Compound `CCN(CC)CCOc1ccc(C(=C(Cl)c2ccccc2)c2ccccc2)cc1` [Clomiphene citrate] gave an IC50 in the series with rHCoVs-OC43 (48 h) of 4.5 µM. For the same compound, a half-maximal response in the series on rHCoVs-OC43 (EC50) required 4.5 µM. `CN1CCC[C@@H]1CCO[C@](C)(c1ccccc1)c1ccc(Cl)cc1` [Clemastine fumarate] had an IC50 with rHCoVs-OC43 (48 h) of 5 µM. Besides, the EC50 in the series with rHCoVs-OC43 was 5 µM.

`CC/C(=C(\c1ccccc1)c1ccc(OCCN(C)C)cc1)c1ccccc1` [Tamoxifen] yielded an EC50 in the series on rHCoVs-OC43 of 3.4 µM.

As a reminder, the CC50 is the concentration that lowers cell viability or growth by half. A high value points to better tolerance by the cells. The compound `CC(C)(C)c1ccc(C(=O)CCCN2CCC(OC(c3ccccc3)c3ccccc3)CC2)cc1` [Ebastine] had an EC50 with rHCoVs-OC43 of more than 10 µM. The compound also had a CC50 at 48 h in series [1] of more than 10 µM. In the series on rHCoVs-OC43, `CSc1ccc2c(c1)N(CCC1CCCCN1C)c1ccccc1S2` (stereo not drawn) [Thioridazine hydrochloride] displayed an IC50 of 1 µM and an EC50 of 1 µM. For the same compound, in the series with rHCoVs-OC43 (48 h), it took 1 µM to reach half-maximal inhibition (IC50). As to `CN(C)CCCN1c2ccccc2CCc2ccc(Cl)cc21` [Clomipramine hydrochloride], it took 3.8 µM to reach a half-maximal effect in the series with rHCoVs-OC43 (EC50).
